# The list shows a part of the results.
# B1: Gal 2 (Homo sapiens), P05162 (protein)
# chain: MTGELEVKNMDMKPGSTLKITGSIADGTDGFVINLGQGTDKLNLHFNPRFSESTIVCNSLDGSNWGQEQREDHLCFSPGSEVKFTVTFESDKFKVKLPDGHELTFPNRLGHSHLSYLSVRGGFNMSSFKLKE
# What was measured:
# Experiment in all cases: glycan array binding signal (z-score within array); higher = stronger binding
# Settings in all cases: glycan notation: IUPAC condensed, linker removed
# [1] = molecular target: Gal(b1-3)GlcNAc(b1-6)[Gal(b1-3)]GalNAc
# How it was run: (§1)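 The Consortium for Functional Glycomics database supplied 3228 glycan arrays, of which those lacking an available protein sequence were dropped. The binding signal, a within-array Z-score, was averaged across arrays of the same protein sequence and across linkers. Negative scores can be read as non-binding.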
# Gal(b1-3)GlcNAc6S = molecular target: Gal(b1-3)GlcNAc6S
# How it was run: as §1
# [2] = molecular target: Gal(b1-3)[Fuc(a1-4)]GlcNAc
# How it was run: as §1
# [3] = molecular target: Gal(b1-3)[Fuc(a1-4)]GlcNAc(b1-2)Man
# How it was run: as §1
# [4] = molecular target: Gal(b1-3)[Fuc(a1-4)]GlcNAc(b1-2)Man(a1-3)[Gal(b1-3)[Fuc(a1-4)]GlcNAc(b1-2)Man(a1-6)]Man(b1-4)GlcNAc(b1-4)[Fuc(a1-6)]GlcNAc
# How it was run: as §1
# [5] = molecular target: Gal(b1-3)[Fuc(a1-4)]GlcNAc(b1-3)Gal(b1-3)[Fuc(a1-4)]GlcNAc
# How it was run: as §1
# [6] = molecular target: Gal(b1-3)[Fuc(a1-4)]GlcNAc(b1-3)Gal(b1-4)GlcNAc
# How it was run: as §1
# [7] = molecular target: Gal(b1-3)[Fuc(a1-4)]GlcNAc(b1-3)Gal(b1-4)[Fuc(a1-3)]GlcNAc
# How it was run: as §1
# [8] = molecular target: Gal(b1-3)[Fuc(a1-4)]GlcNAc(b1-6)GalNAc
# How it was run: as §1
# [9] = molecular target: Gal(b1-3)[GlcNAc(b1-6)]GalNAc
# How it was run: as §1
# [10] = molecular target: Gal(b1-3)[GlcNAc(b1-6)]GlcNAc
# How it was run: as §1
# [11] = molecular target: Gal(b1-3)[Neu5Ac(a2-6)]GalNAc
# How it was run: as §1
# [12] = molecular target: Gal(b1-3)[Neu5Ac(a2-6)]GlcNAc
# How it was run: as §1
# [13] = molecular target: Gal(b1-3)[Neu5Ac(a2-6)]GlcNAc(a1-4)Gal(b1-4)Glc
# How it was run: as §1
# [14] = molecular target: Gal(b1-3)[Neu5Ac(a2-6)]GlcNAc(b1-4)Gal(b1-4)Glc
# How it was run: as §1
# [15] = molecular target: Gal(b1-3)[Neu5Ac(a2-6)]GlcNAc(b1-6)Gal(b1-4)Glc
# How it was run: as §1
# [16] = molecular target: Gal(b1-3)[Neu5Ac(b2-6)]GalNAc
# How it was run: as §1
# [17] = molecular target: Gal(b1-3)[Neu5Ac(b2-6)]GlcNAc
# How it was run: as §1
# Gal(b1-4)Gal = molecular target: Gal(b1-4)Gal
# How it was run: as §1
# [18] = molecular target: Gal(b1-4)GalNAc(a1-3)[Fuc(a1-2)]Gal(b1-4)GlcNAc
# How it was run: as §1
# [19] = molecular target: Gal(b1-4)GalNAc(b1-3)[Fuc(a1-2)]Gal(b1-4)GlcNAc
# How it was run: as §1
# Gal(b1-4)Glc = molecular target: Gal(b1-4)Glc
# How it was run: as §1
# Gal(b1-4)Glc6S = molecular target: Gal(b1-4)Glc6S
# How it was run: as §1
# Gal(b1-4)GlcNAc = molecular target: Gal(b1-4)GlcNAc
# How it was run: as §1
# [20] = molecular target: Gal(b1-4)GlcNAc(a1-6)Gal(b1-4)GlcNAc
# How it was run: as §1
# Gal(b1-4)GlcNAc(b1-2)Man = molecular target: Gal(b1-4)GlcNAc(b1-2)Man
# How it was run: as §1
# [21] = molecular target: Gal(b1-4)GlcNAc(b1-2)Man(a1-3)Man(b1-4)GlcNAc(b1-4)GlcNAc
# How it was run: as §1
# [22] = molecular target: Gal(b1-4)GlcNAc(b1-2)Man(a1-3)[Gal(b1-4)GlcNAc(b1-2)Man(a1-6)]Man(b1-4)GlcNAc(b1-4)GlcNAc
# How it was run: as §1
# [23] = molecular target: Gal(b1-4)GlcNAc(b1-2)Man(a1-3)[Gal(b1-4)GlcNAc(b1-2)Man(a1-6)]Man(b1-4)GlcNAc(b1-4)[Fuc(a1-6)]GlcNAc
# How it was run: as §1
# [24] = molecular target: Gal(b1-4)GlcNAc(b1-2)Man(a1-3)[Gal(b1-4)GlcNAc(b1-2)Man(a1-6)][Gal(b1-4)GlcNAc(b1-4)]Man(b1-4)GlcNAc(b1-4)[Fuc(a1-6)]GlcNAc
# How it was run: as §1
# [25] = molecular target: Gal(b1-4)GlcNAc(b1-2)Man(a1-3)[Gal(b1-4)GlcNAc(b1-2)Man(a1-6)][GlcNAc(b1-4)]Man(b1-4)GlcNAc(b1-4)[Fuc(a1-6)]GlcNAc
# How it was run: as §1
# [26] = molecular target: Gal(b1-4)GlcNAc(b1-2)Man(a1-3)[GlcNAc(b1-2)Man(a1-6)]Man(b1-4)GlcNAc(b1-4)GlcNAc
# How it was run: as §1
# [27] = molecular target: Gal(b1-4)GlcNAc(b1-2)Man(a1-3)[GlcNAc(b1-4)][Gal(b1-4)GlcNAc(b1-2)Man(a1-6)]Man(b1-4)GlcNAc(b1-4)GlcNAc
# How it was run: as §1
# [28] = molecular target: Gal(b1-4)GlcNAc(b1-2)Man(a1-3)[Man(a1-6)]Man(b1-4)GlcNAc(b1-4)GlcNAc
# How it was run: as §1
# [29] = molecular target: Gal(b1-4)GlcNAc(b1-2)Man(a1-6)Man(b1-4)GlcNAc(b1-4)GlcNAc
# How it was run: as §1
# [30] = molecular target: Gal(b1-4)GlcNAc(b1-2)Man(a1-6)[GlcNAc(b1-2)Man(a1-3)]Man(b1-4)GlcNAc(b1-4)GlcNAc
# How it was run: as §1
# [31] = molecular target: Gal(b1-4)GlcNAc(b1-2)Man(a1-6)[Man(a1-3)]Man(b1-4)GlcNAc(b1-4)GlcNAc
# How it was run: as §1
# [32] = molecular target: Gal(b1-4)GlcNAc(b1-2)[Gal(b1-4)GlcNAc(b1-4)]Man(a1-3)[Gal(b1-4)GlcNAc(b1-2)Man(a1-6)]Man(b1-4)GlcNAc(b1-4)GlcNAc
# How it was run: as §1
# [33] = molecular target: Gal(b1-4)GlcNAc(b1-2)[Gal(b1-4)GlcNAc(b1-4)]Man(a1-3)[Gal(b1-4)GlcNAc(b1-2)[Gal(b1-4)GlcNAc(b1-6)]Man(a1-6)]Man(b1-4)GlcNAc(b1-4)GlcNAc
# How it was run: as §1
# [34] = molecular target: Gal(b1-4)GlcNAc(b1-2)[Gal(b1-4)GlcNAc(b1-4)]Man(a1-3)[GlcNAc(b1-4)][Gal(b1-4)GlcNAc(b1-2)Man(a1-6)]Man(b1-4)GlcNAc(b1-4)GlcNAc
# How it was run: as §1
# [35] = molecular target: Gal(b1-4)GlcNAc(b1-2)[Gal(b1-4)GlcNAc(b1-4)]Man(a1-3)[GlcNAc(b1-4)][Gal(b1-4)GlcNAc(b1-2)[Gal(b1-4)GlcNAc(b1-6)]Man(a1-6)]Man(b1-4)GlcNAc(b1-4)GlcNAc
# How it was run: as §1
# [36] = molecular target: Gal(b1-4)GlcNAc(b1-2)[Gal(b1-4)GlcNAc(b1-6)]Man(a1-6)[Gal(b1-4)GlcNAc(b1-2)Man(a1-3)]Man(b1-4)GlcNAc(b1-4)GlcNAc
# How it was run: as §1
# [37] = molecular target: Gal(b1-4)GlcNAc(b1-2)[Gal(b1-4)GlcNAc(b1-6)]Man(a1-6)[Gal(b1-4)GlcNAc(b1-2)Man(a1-3)]Man(b1-4)GlcNAc(b1-4)[Fuc(a1-6)]GlcNAc
# How it was run: as §1
# [38] = molecular target: Gal(b1-4)GlcNAc(b1-2)[Gal(b1-4)GlcNAc(b1-6)]Man(a1-6)[GlcNAc(b1-4)][Gal(b1-4)GlcNAc(b1-2)Man(a1-3)]Man(b1-4)GlcNAc(b1-4)GlcNAc
# How it was run: as §1
# [39] = molecular target: Gal(b1-4)GlcNAc(b1-2)[Gal(b1-4)GlcNAc(b1-6)]Man(a1-6)[GlcNAc(b1-4)][Gal(b1-4)GlcNAc(b1-2)[Gal(b1-4)GlcNAc(b1-4)]Man(a1-3)]Man(b1-4)GlcNAc(b1-4)[Fuc(a1-6)]GlcNAc
# How it was run: as §1
binder,measurement,setting,value
B1,glycan array binding signal (z-score),[1],0.163
same,glycan array binding signal (z-score),Gal(b1-3)GlcNAc6S,-0.146
same,glycan array binding signal (z-score),[2],-0.233
same,glycan array binding signal (z-score),[3],-0.142
same,glycan array binding signal (z-score),[4],0.139
same,glycan array binding signal (z-score),[5],-0.144
same,glycan array binding signal (z-score),[6],0.086
same,glycan array binding signal (z-score),[7],-0.269
same,glycan array binding signal (z-score),[8],-0.236
same,glycan array binding signal (z-score),[9],-0.216
same,glycan array binding signal (z-score),[10],-0.512
same,glycan array binding signal (z-score),[11],-0.219
same,glycan array binding signal (z-score),[12],-0.477
same,glycan array binding signal (z-score),[13],-0.056
same,glycan array binding signal (z-score),[14],-0.217
same,glycan array binding signal (z-score),[15],-0.246
same,glycan array binding signal (z-score),[16],-0.237
same,glycan array binding signal (z-score),[17],-0.53
same,glycan array binding signal (z-score),Gal(b1-4)Gal,-0.253
same,glycan array binding signal (z-score),[18],5.71
same,glycan array binding signal (z-score),[19],-0.291
same,glycan array binding signal (z-score),Gal(b1-4)Glc,-0.245
same,glycan array binding signal (z-score),Gal(b1-4)Glc6S,-0.222
same,glycan array binding signal (z-score),Gal(b1-4)GlcNAc,-0.227
same,glycan array binding signal (z-score),[20],-0.219
same,glycan array binding signal (z-score),Gal(b1-4)GlcNAc(b1-2)Man,-0.092
same,glycan array binding signal (z-score),[21],-0.166
same,glycan array binding signal (z-score),[22],1.65
same,glycan array binding signal (z-score),[23],-0.177
same,glycan array binding signal (z-score),[24],-0.236
same,glycan array binding signal (z-score),[25],-0.215
same,glycan array binding signal (z-score),[26],-0.232
same,glycan array binding signal (z-score),[27],-0.215
same,glycan array binding signal (z-score),[28],-0.312
same,glycan array binding signal (z-score),[29],-0.13
same,glycan array binding signal (z-score),[30],-0.287
same,glycan array binding signal (z-score),[31],-0.223
same,glycan array binding signal (z-score),[32],-0.214
same,glycan array binding signal (z-score),[33],-0.258
same,glycan array binding signal (z-score),[34],0.049
same,glycan array binding signal (z-score),[35],-0.213
same,glycan array binding signal (z-score),[36],-0.091
same,glycan array binding signal (z-score),[37],-0.034
same,glycan array binding signal (z-score),[38],-0.086
same,glycan array binding signal (z-score),[39],-0.211

# Reference: the supplement of paper PMC8728848
